Molecules are shown by their SMILES.

We go through 28 molecules from patent US10299477B2 (priority 2015, dated 2019).

Assay [1] concerns Colletotrichum orbiculare. The settings on record: 250 ppm spray (2.5 ml/pot), preventive; 6-10 days after inoculation; control value class.
The next assay concerns Magnaporthe grisea. The class given is in vivo. The settings on record: 250 ppm spray, preventive; control value class.
The test system of another assay is Phytophthora infestans. It is filed as in vivo. The settings on record: 250 ppm spray (2.5 ml/pot), preventive; 5-10 days after inoculation; control value class.

For the molecule `COc1cc(OC)c(Cl)c(-c2ccc(=O)n(C)c2-c2c(F)cccc2Br)c1` [Compound 185], the “Test H control value (anthracnose on cucumber)” value (“Test H control value” for short) in assay [1] is listed as “H (H shows more than 50% of control values)”. Also, the “Test A control value (blast on rice)” value in the assay with Magnaporthe grisea is “H (H shows more than 50% of control values)”. In addition, the “Test F control value (late blight on tomato)” value (from here on “Test F control value”) in the assay with Phytophthora infestans was “H (H shows more than 50% of control values)”.

On to `CCN1C(=O)CCC(c2cc(OC)cc(OC)c2)=C1c1c(F)cc(Br)cc1F` [Compound 186], for which, in assay [1], the “Test H control value” value was “L (L shows 50% or less of control values)”. Moreover, the “Test A control value (blast on rice)” value in the assay with Magnaporthe grisea is “H (H shows more than 50% of control values)”. Besides, the “Test F control value” value in the assay on Phytophthora infestans is reported as “H (H shows more than 50% of control values)”.

For `Cn1c(-c2c(F)cccc2F)c(-c2cc(OCC(F)F)ccc2Cl)ccc1=O` [Compound 278], the “Test H control value” value in assay [1] is listed as “H (H shows more than 50% of control values)”. Further, the “Test A control value (blast on rice)” value in the assay on Magnaporthe grisea was “H (H shows more than 50% of control values)”. In addition, the “Test F control value” value in the assay with Phytophthora infestans is “L (L shows 50% or less of control values)”.

As for `CCn1c(-c2c(F)cccc2F)c(-c2c(F)c(F)c(F)c(F)c2F)cc(Cl)c1=O` [Compound 372], the “Test H control value” value in assay [1] is “L (L shows 50% or less of control values)”. Besides, in the assay on Magnaporthe grisea, the “Test A control value (blast on rice)” value is “H (H shows more than 50% of control values)”. In the assay on Phytophthora infestans, the “Test F control value” value is listed as “L (L shows 50% or less of control values)”.

Take `CCn1c(-c2c(F)cccc2F)c(-c2cc(F)ccc2Cl)ccc1=O` [Compound 358]: the “Test H control value” value in assay [1] is “H (H shows more than 50% of control values)”. The “Test A control value (blast on rice)” value with Magnaporthe grisea is given as “H (H shows more than 50% of control values)”. In the assay with Phytophthora infestans, the “Test F control value” value was “H (H shows more than 50% of control values)”.

On to `CCn1c(-c2ccccc2F)c(-c2cc(OC)cc(OC)c2)ccc1=O` [Compound 230], for which, in assay [1], the “Test H control value” value is listed as “H (H shows more than 50% of control values)”. For the same molecule, the “Test A control value (blast on rice)” value with Magnaporthe grisea is recorded as “H (H shows more than 50% of control values)”. Besides, the “Test F control value” value with Phytophthora infestans is reported as “H (H shows more than 50% of control values)”.

As to `Cn1c(-c2c(F)cccc2F)c(-c2cccc(Cl)c2Cl)cc(Cl)c1=O` [Compound 365], in assay [1], the “Test H control value” value is on record as “H (H shows more than 50% of control values)”. In the assay with Magnaporthe grisea, the “Test A control value (blast on rice)” value is reported as “H (H shows more than 50% of control values)”. Also, the “Test F control value” value in the assay on Phytophthora infestans is given as “L (L shows 50% or less of control values)”.

For `Cn1c(-c2c(F)cccc2F)c(-c2ccc(Br)cc2)cc(Br)c1=O` [Compound 290], in assay [1], the “Test H control value” value is listed as “H (H shows more than 50% of control values)”. In addition, the “Test A control value (blast on rice)” value in the assay on Magnaporthe grisea is on record as “H (H shows more than 50% of control values)”. The “Test F control value” value in the assay on Phytophthora infestans is recorded as “L (L shows 50% or less of control values)”.

For `CCn1c(-c2c(F)cccc2F)c(-c2ccc(Cl)cc2Cl)cc(Cl)c1=O` [Compound 333], in assay [1], the “Test H control value” value is reported as “L (L shows 50% or less of control values)”. Further, the “Test A control value (blast on rice)” value in the assay with Magnaporthe grisea was “H (H shows more than 50% of control values)”. In the assay on Phytophthora infestans, the “Test F control value” value was “L (L shows 50% or less of control values)”.

`CCCCCOc1ccc(Cl)c(-c2ccc(=O)n(CC)c2-c2c(F)cccc2F)c1` [Compound 254]: the “Test H control value” value in assay [1] is “L (L shows 50% or less of control values)”. Besides, the “Test A control value (blast on rice)” value in the assay with Magnaporthe grisea is listed as “H (H shows more than 50% of control values)”. Also, the “Test F control value” value with Phytophthora infestans is “L (L shows 50% or less of control values)”.

In the case of `CCn1c(-c2c(F)cccc2F)c(-c2cccc(Br)c2)ccc1=O` [Compound 327], the “Test H control value” value in assay [1] is listed as “L (L shows 50% or less of control values)”. For the same molecule, the “Test A control value (blast on rice)” value with Magnaporthe grisea is “H (H shows more than 50% of control values)”. Besides, in the assay with Phytophthora infestans, the “Test F control value” value is on record as “L (L shows 50% or less of control values)”.

For the molecule `CC(=O)COc1ccc(Cl)c(-c2ccc(=O)n(C)c2-c2c(F)cccc2F)c1` [Compound 304], in assay [1], the “Test H control value” value was “L (L shows 50% or less of control values)”. For the same molecule, the “Test A control value (blast on rice)” value with Magnaporthe grisea is “H (H shows more than 50% of control values)”. Further, the “Test F control value” value in the assay with Phytophthora infestans was “L (L shows 50% or less of control values)”.

As to `CCn1c(-c2c(F)cccc2F)c(-c2cc(OCC(F)F)ccc2Cl)ccc1=O` [Compound 277], the “Test H control value” value in assay [1] is “H (H shows more than 50% of control values)”. Moreover, in the assay on Magnaporthe grisea, the “Test A control value (blast on rice)” value is “H (H shows more than 50% of control values)”. For the same molecule, in the assay with Phytophthora infestans, the “Test F control value” value is recorded as “L (L shows 50% or less of control values)”.

On to `CCn1c(-c2c(F)cccc2F)c(-c2ccc(Br)cc2)ccc1=O` [Compound 292], for which the “Test H control value” value in assay [1] is “H (H shows more than 50% of control values)”. For the same molecule, the “Test A control value (blast on rice)” value with Magnaporthe grisea is recorded as “H (H shows more than 50% of control values)”. For the same molecule, the “Test F control value” value in the assay with Phytophthora infestans is reported as “L (L shows 50% or less of control values)”.

`Cn1c(-c2c(F)cccc2F)c(-c2cccc(Cl)c2Cl)ccc1=O` [Compound 364]: the “Test H control value” value in assay [1] was “H (H shows more than 50% of control values)”. The “Test A control value (blast on rice)” value in the assay with Magnaporthe grisea is recorded as “H (H shows more than 50% of control values)”. For the same molecule, the “Test F control value” value in the assay on Phytophthora infestans is given as “L (L shows 50% or less of control values)”.

Take `C#CCOc1ccc(Cl)c(-c2ccc(=O)n(C)c2-c2c(F)cccc2F)c1` [Compound 243]: the “Test H control value” value in assay [1] is given as “H (H shows more than 50% of control values)”. In addition, the “Test A control value (blast on rice)” value in the assay with Magnaporthe grisea was “H (H shows more than 50% of control values)”. Also, the “Test F control value” value with Phytophthora infestans is “L (L shows 50% or less of control values)”.

For `CC(C)COc1ccc(Cl)c(-c2ccc(=O)n(C)c2-c2c(F)cccc2F)c1` [Compound 259], the “Test H control value” value in assay [1] was “L (L shows 50% or less of control values)”. For the same molecule, the “Test A control value (blast on rice)” value with Magnaporthe grisea is recorded as “H (H shows more than 50% of control values)”. For the same molecule, the “Test F control value” value in the assay on Phytophthora infestans is “L (L shows 50% or less of control values)”.

Take `CCn1c(-c2c(F)cccc2F)c(-c2cc(OCS(C)(=O)=O)ccc2Cl)ccc1=O` [Compound 309]: in assay [1], the “Test H control value” value is on record as “H (H shows more than 50% of control values)”. Moreover, the “Test A control value (blast on rice)” value in the assay on Magnaporthe grisea is “L (L shows 50% or less of control values)”. Also, the “Test F control value” value in the assay with Phytophthora infestans is “L (L shows 50% or less of control values)”.

For `Cn1c(-c2c(F)cccc2F)c(-c2ccc(Cl)cc2Cl)ccc1=O` [Compound 346], the “Test H control value” value in assay [1] is on record as “L (L shows 50% or less of control values)”. Besides, the “Test A control value (blast on rice)” value in the assay on Magnaporthe grisea is “H (H shows more than 50% of control values)”. The “Test F control value” value in the assay with Phytophthora infestans is “L (L shows 50% or less of control values)”.

In the case of `Cn1c(-c2c(F)cccc2F)c(-c2cc(OCCC[Si](C)(C)C)ccc2Cl)ccc1=O` [Compound 276], the “Test H control value” value in assay [1] is “L (L shows 50% or less of control values)”. In addition, the “Test A control value (blast on rice)” value in the assay with Magnaporthe grisea is “L (L shows 50% or less of control values)”. For the same molecule, in the assay with Phytophthora infestans, the “Test F control value” value was “L (L shows 50% or less of control values)”.

For `Cn1c(-c2c(F)cccc2F)c(-c2cccc(Cl)c2)cc(Br)c1=O` [Compound 190], the “Test H control value” value in assay [1] is listed as “L (L shows 50% or less of control values)”. Also, in the assay with Magnaporthe grisea, the “Test A control value (blast on rice)” value is listed as “H (H shows more than 50% of control values)”. In addition, the “Test F control value” value in the assay with Phytophthora infestans is given as “L (L shows 50% or less of control values)”.

As for `Cc1ccc(-c2cc(Br)c(=O)n(C)c2-c2c(F)cccc2F)cc1` [Compound 273], the “Test H control value” value in assay [1] was “L (L shows 50% or less of control values)”. Further, in the assay on Magnaporthe grisea, the “Test A control value (blast on rice)” value was “H (H shows more than 50% of control values)”. Moreover, the “Test F control value” value in the assay with Phytophthora infestans is on record as “L (L shows 50% or less of control values)”.

Take `COc1cc(OC)c(Cl)c(-c2ccc(=O)n(CC(F)F)c2-c2c(F)cccc2F)c1` [Compound 337]: in assay [1], the “Test H control value” value is “H (H shows more than 50% of control values)”. For the same molecule, in the assay with Magnaporthe grisea, the “Test A control value (blast on rice)” value is “H (H shows more than 50% of control values)”. The “Test F control value” value with Phytophthora infestans was “H (H shows more than 50% of control values)”.

With `CCn1c(-c2c(F)cccc2F)c(-c2cc(OC(=O)OC)ccc2Cl)ccc1=O` [Compound 297], in assay [1], the “Test H control value” value was “H (H shows more than 50% of control values)”. The “Test A control value (blast on rice)” value in the assay on Magnaporthe grisea is reported as “H (H shows more than 50% of control values)”. Further, the “Test F control value” value in the assay with Phytophthora infestans is given as “L (L shows 50% or less of control values)”.

Turning to `CCn1c(-c2c(F)cccc2F)c(-c2cc(F)ccc2Cl)cc(Cl)c1=O` [Compound 360], the “Test H control value” value in assay [1] is reported as “H (H shows more than 50% of control values)”. The “Test A control value (blast on rice)” value in the assay with Magnaporthe grisea is listed as “H (H shows more than 50% of control values)”. In addition, the “Test F control value” value in the assay on Phytophthora infestans was “L (L shows 50% or less of control values)”.

As for `CCn1c(-c2c(F)cccc2F)c(-c2cc(F)ccc2Cl)cc(Br)c1=O` [Compound 361], in assay [1], the “Test H control value” value is “L (L shows 50% or less of control values)”. Also, in the assay on Magnaporthe grisea, the “Test A control value (blast on rice)” value was “H (H shows more than 50% of control values)”. Moreover, the “Test F control value” value in the assay with Phytophthora infestans was “L (L shows 50% or less of control values)”.

As to `Cn1c(-c2c(F)cccc2F)c(-c2cc(F)ccc2Cl)ccc1=O` [Compound 359], the “Test H control value” value in assay [1] is on record as “H (H shows more than 50% of control values)”. For the same molecule, in the assay on Magnaporthe grisea, the “Test A control value (blast on rice)” value is listed as “H (H shows more than 50% of control values)”. Also, the “Test F control value” value in the assay with Phytophthora infestans is reported as “H (H shows more than 50% of control values)”.

Turning to `CCn1c(-c2c(F)cccc2F)c(-c2cccc(Cl)c2Cl)ccc1=O` [Compound 349], the “Test H control value” value in assay [1] was “H (H shows more than 50% of control values)”. The “Test A control value (blast on rice)” value in the assay with Magnaporthe grisea is “H (H shows more than 50% of control values)”. The “Test F control value” value with Phytophthora infestans is reported as “H (H shows more than 50% of control values)”.
